PubChem BioAssay AID1458 (National Center for Advancing Translational Sciences (NCATS), 2008)
Among all 210,000 compounds or so, about 5,900 (2.8%) were called active. The inconclusive results got no clear call from the source; some entries with a clear call stand among them for comparison. Calls come from the whole dose curve; as a rule, active = well fitted activation curve with a large enough effect; inconclusive = small, poorly fitted or top-dose-only effect; inactive = no such curve, though single readings can be large or run the other way. Potencies beside an inconclusive call are fits to weak or partial responses and may not hold up.

Experiment: qHTS Assay for Enhancers of SMN2 Splice Variant Expression; note: nearly all actives have a fitted effect of over 55% in size; for activity change, positive = activation: % of control where 0% means no effect
Settings: HEK293 SMN2-luciferase splicing reporter, luminescence, 30-36 h; activity change, positive = activation: at 46.1 µM (top of the series)
Procedure, shortened: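 HEK293 cells carry an SMN2 […]–luciferase reporter in which exon 7 inclusion puts luciferase in frame. Cells were plated 10-12 h before compound addition, then incubated 30-36 h at 37C. ONE-Glo luminescence was read; sodium butyrate at 4.5 mM final served as control.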
Potency is the fitted concentration of half-maximal effect; tags give direction and shape of the fitted curve.

Question: For N/C(=N\OC(=O)CCC1CCCCC1)c1ccccn1, which Potency is on record?
Answer: inconclusive: 20 µM [activator, single point]

Question: For Cc1cc(C)cc(N(CC(=O)N2CCC(C)CC2)S(C)(=O)=O)c1, which Potency is on record?
Answer: inconclusive: 0.1 µM [activator, full curve, poor fit]

Question: For CC(C)(C)c1cc(CN(CCO)CCO)cc(C(C)(C)C)c1O, which Potency is on record?
Answer: inconclusive: 35.5 µM [activator, partial curve, poor fit]

Question: With Cc1ccc2c(Cl)cc(Cl)c(OCC(=O)Nc3ccc(C)c(S(=O)(=O)N(C)C)c3)c2n1 as the compound, how does the “activity change, positive = activation” value read?
Answer: inactive: -14.2%

Question: Which Potency does the source give for COCCCn1c(-c2ccc(OC)cc2)nc2nc3ccccc3nc21 here?
Answer: inconclusive: 7.08 µM [activator, partial curve, poor fit]

Question: Which Potency does the source give for Cc1cccc(N=Nc2c(C)[nH]n(-c3ccccc3)c2=O)c1 here?
Answer: inconclusive: 11.2 µM [activator, single point]

Question: With O=C(Nc1ccccc1F)Nc1ccccc1OC(F)F as the compound, how does the “activity change, positive = activation” value read?
Answer: inactive: -7.8%

Question: For c1csc(-c2cnc3ccccc3n2)c1, which Potency is on record?
Answer: inconclusive: 35.5 µM [activator, single point]

Question: For COc1cc2c(cc1OC)CN(C(=O)COc1ccc(C)c(C)c1)CC2, which “activity change, positive = activation” value is on record?
Answer: inactive: 28.8%

Question: For C=CCn1c(-c2ccc(OC)cc2)nc2nc3ccccc3nc21, which Potency is on record?
Answer: active: 10 µM

Question: With CN(Cc1nccn1C)C(=O)CCc1nnc(CCC2CCCCC2)o1 as the compound, how does the Potency read?
Answer: inconclusive: 3.16 µM [activator, partial curve, poor fit]

Question: For CCOC(=O)c1oc2c(CN3CCCCC3C)c(O)ccc2c(=O)c1-c1ccc(OC)c(OC)c1 (configuration not stated), which Potency is on record?
Answer: inconclusive: 0.0045 µM [activator, full curve, poor fit]

Question: For Cc1cccc(Cc2cnc(NC(=O)c3ccc(C)o3)s2)c1, which “activity change, positive = activation” value is on record?
Answer: inactive: -2.12%

Question: With COc1cc(Nc2cc(C)nc3ncnn23)cc(OC)c1 as the compound, how does the Potency read?
Answer: inconclusive: 20 µM [activator, partial curve]

Question: For C/C(=N\N1CCN(c2ccccc2)CC1)c1ccco1, which Potency is on record?
Answer: inconclusive: 1 µM [activator, full curve, poor fit]

Question: For Cc1nc(NC(=O)CSc2nnc(-c3ccc4c(c3)OCO4)o2)c(Cl)cc1Cl, which Potency is on record?
Answer: inconclusive: 10 µM [activator, partial curve]

Question: With COc1cccc(OCc2nc3ncc(Br)cc3[nH]2)c1 as the compound, how does the Potency read?
Answer: inconclusive: 7.08 µM [activator, partial curve, poor fit]

Question: Which Potency does the source give for COc1ccc(CCNC(=O)Nc2ccccc2[N+](=O)[O-])cc1 here?
Answer: inconclusive: 10 µM [activator, partial curve]

Question: For O=C(CS(=O)(=O)Cc1ccccc1)Nc1cccnc1, which Potency is on record?
Answer: inconclusive: 0.0032 µM [activator, full curve, poor fit]

Question: With CC(=O)Nc1cccc(NC(=O)c2cc(C)on2)c1 as the compound, how does the Potency read?
Answer: inconclusive: 1.41 µM [activator, partial curve]

Question: With CCC(=O)c1ccc(OCC(=O)N2CCc3cc(OC)c(OC)cc3C2)cc1 as the compound, how does the Potency read?
Answer: inconclusive: 5.62 µM [activator, single point]

Question: With COC(=O)Cn1c(=O)c2c(nc(Br)n2CC(=O)OC)n(C)c1=O as the compound, how does the Potency read?
Answer: inconclusive: 0.178 µM [activator, full curve, poor fit]

Question: Which Potency does the source give for Cc1ccc(C(=O)COC(=O)c2cccc(NC(=O)c3ccc(Cl)cc3Cl)c2)cc1 here?
Answer: inconclusive: 4.47 µM [activator, partial curve, poor fit]

Question: Which “activity change, positive = activation” value does the source give for C=CCn1c(=O)/c(=C/c2ccc(Cl)cc2)s/c1=C(/C#N)c1nnc2n1CCCCC2 here?
Answer: inactive: 12.4%

Question: Which Potency does the source give for CCOC(=O)Cn1cnc(-c2ccc([N+](=O)[O-])cc2)c1 here?
Answer: inconclusive: 35.5 µM [activator, single point]

Question: For Cc1cc(S(=O)(=O)Nc2ccc(C(=O)O)cc2)c(C)c(S(=O)(=O)c2ccc(Cl)cc2)c1, which “activity change, positive = activation” value is on record?
Answer: inactive: -0.312%

Question: With CCCC(=O)c1ccc(N2CCC(C)CC2)c(F)c1 as the compound, how does the Potency read?
Answer: inconclusive: 35.5 µM [activator, single point]

Question: Which Potency does the source give for CCOC(=O)c1nnn(-c2ccc(OC)cc2)c1N here?
Answer: inconclusive: 39.8 µM [activator, partial curve, poor fit]

Question: With COc1ccc(NC(=O)c2sc(=S)[nH]c2N)cc1 as the compound, how does the Potency read?
Answer: inconclusive: 10 µM [activator, partial curve, poor fit]

Question: Which Potency does the source give for Cc1ccc(C(=O)NC2CCc3ccccc3C2=O)cc1 (configuration not stated) here?
Answer: active: 12.6 µM

Question: For CCOc1ccc(OCC)c(NC(=O)Cn2ncc3c4ccccc4n(Cc4ccccc4)c3c2=O)c1, which “activity change, positive = activation” value is on record?
Answer: inactive: 2.47%

Question: For O=C(OCC(=O)N1CCCC1)c1c2c(nc3ccccc13)CCCCC2, which Potency is on record?
Answer: inconclusive: 14.1 µM [activator, partial curve]

Question: With CN(C)c1ccc(-c2ccncc2)cc1 as the compound, how does the Potency read?
Answer: inconclusive: 0.398 µM [activator, partial curve, poor fit]

Question: Which Potency does the source give for COc1ccc(/C=C/c2nnc(NC(=O)COc3cccc(C)c3)s2)cc1 here?
Answer: inconclusive: 0.224 µM [activator, full curve, poor fit]

Question: For Cc1nc2nc(NCc3cccc(Br)c3)[nH]n2c(=O)c1Cc1ccccc1, which “activity change, positive = activation” value is on record?
Answer: inactive: 0.373%

Question: With Cc1cccc(OCc2nc3ccccc3c(=O)n2N)c1 as the compound, how does the Potency read?
Answer: inconclusive: 10 µM [activator, partial curve]

Question: Which “activity change, positive = activation” value does the source give for O=C(COC(=O)c1ccc[nH]c1=O)c1ccc(Cl)s1 here?
Answer: inactive: 8.15%

Question: With Cc1cccc(NC(=O)C2CCCN(S(=O)(=O)c3cnc[nH]3)C2)c1C (configuration not stated) as the compound, how does the “activity change, positive = activation” value read?
Answer: inactive: 2.19%

Question: Which Potency does the source give for Cc1ccc(OCCn2cc(C(=S)N3CCCC3)c3ccccc32)cc1C here?
Answer: inconclusive: 5.62 µM [activator, single point]

Question: Which Potency does the source give for COc1ccc(-n2cnnc2SCCC#N)cc1 here?
Answer: inconclusive: 2.51 µM [activator, partial curve, poor fit]

Question: For O=C(Nc1cccc(-c2cc3ccccc3oc2=O)c1)c1ccc(Br)o1, which “activity change, positive = activation” value is on record?
Answer: inactive: 24.7%

Question: For CCCCN1CCc2c([nH]c3ccc(C)cc23)C1=O, which Potency is on record?
Answer: inconclusive: 3.55 µM [activator, full curve, poor fit]

Question: Which Potency does the source give for O=C1/C(=C\c2ccco2)CCC/C1=C\c1ccco1 here?
Answer: active: 17.8 µM

Question: With Clc1ccc(-c2nnc(NC3=NCCCCC3)o2)cc1 as the compound, how does the Potency read?
Answer: inconclusive: 0.447 µM [activator, full curve, poor fit]

Question: Which “activity change, positive = activation” value does the source give for CCc1nc(SCC(=O)N2CCC(C)CC2)c2c(=O)n(C)c(=O)n(C)c2n1 here?
Answer: inactive: -12.6%

Question: For CCC(Sc1nc(-c2ccccc2)c(C#N)c(=O)[nH]1)C(=O)Nc1cc(C)on1 (configuration not stated), which Potency is on record?
Answer: inconclusive: 14.1 µM [activator, partial curve, poor fit]

Question: With CC(=O)NS(=O)(=O)c1ccc(NC(=S)NC(=O)c2ccco2)cc1 as the compound, how does the Potency read?
Answer: inconclusive: 25.1 µM [activator, single point]

Question: Which Potency does the source give for COc1ccc(NCC(=O)N/N=C/c2ccc3c(c2)OCCO3)cc1 here?
Answer: inconclusive: 0.562 µM [activator, single point]

Question: For CN(C)/N=C/c1ccc(N2CCOCC2)cc1, which Potency is on record?
Answer: inconclusive: 11.2 µM [activator, partial curve]

Question: With Cc1cccc2sc(NC(=O)C3CCCO3)nc12 (configuration not stated) as the compound, how does the Potency read?
Answer: active: 20 µM

Question: With CCN(CC)c1ccc(/C=N/NC(=O)c2cccc(S(=O)(=O)Nc3ccccc3OC)c2)cc1 as the compound, how does the “activity change, positive = activation” value read?
Answer: inactive: -1.3%

Question: Which Potency does the source give for COc1cccc(-c2nccc(-n3ccnc3)n2)c1 here?
Answer: active: 12.6 µM

Question: For Cc1nc(-c2ccc(NC(=O)CC(C)C)cc2)cs1, which Potency is on record?
Answer: active: 11.2 µM

Question: For Cc1oc(C(=O)Nc2ccc(O)cc2)cc1COc1ccccc1, which Potency is on record?
Answer: inconclusive: 17.8 µM [activator, partial curve, poor fit]

Question: Which Potency does the source give for CC(=O)Oc1ccc2c(=O)c(Oc3ccccc3)c(C)oc2c1OC(C)=O here?
Answer: inconclusive: 11.2 µM [activator, partial curve]

Question: With COc1cc2c(cc1NC(=O)/C=C/c1cc(OC)c(OC)c(OC)c1)oc1ccccc12 as the compound, how does the “activity change, positive = activation” value read?
Answer: inactive: -16.1%

Question: With O=C(COc1ccc(Br)cc1CO)Nc1ccccc1 as the compound, how does the “activity change, positive = activation” value read?
Answer: inactive: -16.7%

Question: Which Potency does the source give for O=C(NC(Cc1ccccc1)C(=O)N1CCN(c2ccccn2)CC1)c1ccco1 (configuration not stated) here?
Answer: inconclusive: 0.0224 µM [activator, full curve, poor fit]

Question: For O=C(Nc1ccc(-n2cnnn2)cc1)C(c1ccccc1)c1ccccc1, which Potency is on record?
Answer: inconclusive: 35.5 µM [activator, single point]

Question: For O=C(Nc1ccccc1Cl)N1CCN(c2ccc3nnc(-c4ccc(F)cc4)n3n2)CC1, which “activity change, positive = activation” value is on record?
Answer: inactive: -12.3%

Question: For O=C(NCC1CCCO1)C(=O)NCC(c1ccco1)N1CCN(c2ccccc2F)CC1 (configuration not stated), which Potency is on record?
Answer: inconclusive: 0.0045 µM [activator, full curve, poor fit]

Question: With Cc1ccc(-c2cc(C(F)F)n3ncc(C(=O)N4CCCc5ccccc54)c3n2)cc1 as the compound, how does the “activity change, positive = activation” value read?
Answer: inactive: 5.75%

Question: For NS(=O)(=O)c1ccc(N/C=C\C(=O)c2ccc(F)cc2)cc1, which Potency is on record?
Answer: active: 12.6 µM

Question: For COc1ccc(-c2cc(C(F)F)n3ncc(C(=O)NCCCN4CCCC4=O)c3n2)cc1, which “activity change, positive = activation” value is on record?
Answer: inactive: 3.1%

Question: With O=C(Cc1nc2ccccc2[nH]c1=O)c1ccccc1 as the compound, how does the Potency read?
Answer: active: 11.2 µM

Question: With CCOC(=O)c1cnn(-c2ncnc3sc(CC)cc23)c1N as the compound, how does the “activity change, positive = activation” value read?
Answer: inactive: 13.1%

Question: Which Potency does the source give for COC(=O)c1ccccc1NC(=O)c1cc(C2CC2)on1 here?
Answer: inconclusive: 11.2 µM [activator, single point]

Question: For Cc1cc(C(=O)O)ccc1N/C=C1\CCCC(C)C1=O (configuration not stated), which Potency is on record?
Answer: inconclusive: 5.62 µM [activator, single point]

Question: Which Potency does the source give for Cc1cccc(-c2nnc(NC(=O)c3cccs3)s2)c1 here?
Answer: inconclusive: 7.94 µM [activator, partial curve, poor fit]

Question: For O=C(NCC(=O)N1CCN(c2ncccn2)CC1)c1cccs1, which Potency is on record?
Answer: inconclusive: 20 µM [activator, partial curve]

Question: For CC(C)c1ccc(OCC(=O)Nc2cccc3c2CCCC3)cc1, which Potency is on record?
Answer: inconclusive: 35.5 µM [activator, single point]

Question: With O=C(CCCn1cnc([N+](=O)[O-])n1)Nc1cc(Cl)ccc1O as the compound, how does the activity change, positive = activation read?
Answer: inconclusive: 42% [activator]
